# Data published in PubChem BioAssay AID1240 (Sanford-Burnham Center for Chemical Genomics, 2008).
# About 800 (1.6%) of roughly 50,000 compounds showed an effect of 50% or more. This is one part of the list.
# Target: Bcl-2-like protein 10 (Homo sapiens) (UniProt Q9HD36)
# Test: Phenotype converters, Bcl-B/TR3 peptide binding displacement, primary biochemical FP (AID 1240);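 also: 0% = Bcl-B with tracer peptide and DMSO and 100% = tracer peptide lacking Bcl-B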
# Settings: GST-Bcl-B / FITC-TR3 peptide fluorescence polarization; stronger effect = higher value; compound at 3.75 mg/L
# UniProt Q9HD36, sequence (Q9HD36 whole entry, looked up): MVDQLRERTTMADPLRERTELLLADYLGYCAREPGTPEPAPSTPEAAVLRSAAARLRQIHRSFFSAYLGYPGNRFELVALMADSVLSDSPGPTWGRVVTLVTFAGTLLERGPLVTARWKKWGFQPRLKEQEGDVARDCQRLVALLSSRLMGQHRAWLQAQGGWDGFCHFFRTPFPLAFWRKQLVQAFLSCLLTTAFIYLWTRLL
row,Compound,displacement [%]
1,Cc1ccc(C(C)C)c(OCC(=O)Nc2ccc(Cl)c(NC(=O)c3ccco3)c2)c1,17.2
2,COC(=O)C1=C(C)N(c2ccc(Cl)cc2)C(=O)/C1=C\c1ccccc1O,-10.3
3,N/C(Cc1cccc2ccccc12)=N\OC(=O)c1cccs1,98.4
4,NNS(=O)(=O)c1ccc2c(c1)Cc1cc(S(=O)(=O)NN)ccc1-2,15.4
5,Cc1cccc(C(C)C)c1NC(=O)c1cccc(Br)c1,0.6
6,CCN(CC)CCCCCCOc1ccccc1C(C)(C)C,13.1
7,COc1ccccc1CNC(=O)C(=O)NCC1CCCO1 (stereo not given),2.8
8,COc1cc(NC(=O)c2ccc(-c3ccc(Cl)cc3)o2)ccc1NC(=O)c1ccco1,-6.5
9,COc1ccc(C2=C/C(=C\c3ccccc3[N+](=O)[O-])C(=O)O2)cc1,-1.5
10,Clc1ccccc1OCCCN1CCOCC1,6.3
11,COc1cc([N+](=O)[O-])ccc1NC(=S)NC(=O)c1ccc(Cl)cc1,-5.8
12,COC(=O)CN(c1ccc(F)cc1)S(C)(=O)=O,6.4
13,Cc1ccc2nc(NC(=O)c3ccccc3Br)sc2c1,4.5
14,O=C1OC(Oc2ccc(Cl)cc2Cl)(c2ccccc2)c2ccccc21 (stereo not given),5.8
15,Cc1ccc(/C=N/N2CCN(Cc3ccc(Cl)cc3)CC2)s1,-3.8
16,CCOC(=O)N/N=C(\C)C12CC3CC(CC(C3)C1)C2,1.6
17,CCOC(=O)COc1ccc(/C=C(/C#N)C(=O)Nc2cccc(Br)c2)cc1,-8.9
18,CN(C)CCN1C(=O)C(=O)/C(=C(/O)c2ccccc2)C1c1cccc(F)c1 (stereo not given),5.5
19,COc1ccccc1N1C(=O)S/C(=C\c2cccc(Br)c2)C1=O,12.8
20,Cc1ccc(C)c(C(=O)c2ccccc2NC(=O)c2ccccn2)c1,-2.8
21,COCCOC(=O)C1=C(C)NC(=O)NC1c1ccc(N(C)C)cc1 (stereo not given),2.6
22,Cc1nc2c(-c3ccccc3)cnn2c(C(C)(C)C)c1C,-0.1
23,CCc1ccccc1NC(=O)CN(c1ccc(C)c(Cl)c1)S(C)(=O)=O,5.6
24,COc1ccc(N(CC(=O)Nc2c(C)cccc2C)S(=O)(=O)c2ccccc2)cc1Cl,5.9
25,O=C(O)c1cnn2c1NC(c1ccc(Br)cc1)CC2C(F)(F)F (stereo not given),4.8
26,CC(=O)c1ccc(NC(=O)c2sc3ccccc3c2Cl)cc1,12.2
27,COc1cccc(N2C(=O)C(=Cc3ccc(OC)cc3OC)C(=O)NC2=S)c1,8.5
28,COc1ccc(N2C(=O)CC(Sc3nnc(-c4ccccc4)n3-c3ccccc3)C2=O)cc1 (stereo not given),4.5
29,Cc1cc(/C=C2\C(=O)NC(=O)N(C)C2=O)c(C)n1-c1ccc(N(C)C)cc1,124
30,Cc1ccc(N2CCN(C(=O)Nc3ccc(Cl)cc3)CC2)cc1,12.3
